This assay deals with Recombinant heterodimeric HCV NS3/NS4A protease (strain 1a) (Hepatitis C virus genotype 1a, UniProt P27958). Nature of the assay: Spectrophotometric assay for HCV protease inhibitory activity. The assay is classed as biochemical. The conditions noted are these: chromogenic ester substrate, 30° C., pH 6.5, read-out: Ki*. An excerpt:
Assay for HCV Protease Inhibitory Activity:
Spectrophotometric Assay: Spectrophotometric assay for the HCV serine protease can be performed on the inventive compounds by following the procedure described by R. Zhang et al, Analytical Biochemistry, 270 (1999) 268-275, the disclosure of which is incorporated herein by reference. The assay based on the proteolysis of chromogenic ester substrates is suitable for the continuous monitoring of HCV NS3 protease activity. The substrates are derived from the P side of the NS5A-NS5B junction sequence (Ac-DTEDWX(Nva), where X=A or P) whose C-terminal carboxyl groups are esterified with one of four different chromophoric alcohols (3- or 4-nitrophenol, 7-hydroxy-4-methyl-coumarin, or 4-phenylazophenol). Illustrated below are the synthesis, characterization and application of these novel spectrophotometric ester substrates to high throughput screening and detailed kinetic evaluation of HCV NS3 protease inhibitors.
Protein concentrations are determined by the Biorad dye method using recombinant HCV protease standards previously quantified by amino acid analysis. Prior to assay initiation, the enzyme storage buffer (50 mM sodium phosphate pH 8.0, 300 mM NaCl, 10% glycerol, 0.05% lauryl maltoside and 10 mM DTT) is exchanged for the assay buffer (25 mM MOPS pH 6.5, 300 mM NaCl, 10% glycerol, 0.05% lauryl maltoside, 5 μM EDTA and 5 μM DTT) utilizing a Biorad Bio-Spin P-6 prepacked column.
Spectra of Substrates and Products: Spectra of substrates and the corresponding chromophore products are obtained in the pH 6.5 assay buffer. Extinction coefficients are determined at the optimal off-peak wavelength in 1-cm cuvettes (340 nm for 3-Np and HMC, 370 nm for PAP and 400 nm for 4-Np) using multiple dilutions. The optimal off-peak wavelength is defined as that wavelength yielding the maximum fractional difference in absorbance between substrate and product (product OD−substrate OD)/substrate OD).
Protease Assay: HCV protease assays are performed at 30° C. using a 200 μl reaction mix in a 96-well microtiter plate. Assay buffer conditions (25 mM MOPS pH 6.5, 300 mM NaCl, 10% glycerol, 0.05% lauryl maltoside, 5 μM EDTA and 5 μM DTT) are optimized for the NS3/NS4A heterodimer (D. L. Sali et al, ibid.)). Typically, 150 μl mixtures of buffer, substrate and inhibitor are placed in wells (final concentration of DMSO≦4% v/v) and allowed to preincubate at 30° C. for approximately 3 minutes. Fifty μls of prewarmed protease (12 nM, 30° C.) in assay buffer, is then used to initiate the reaction (final volume 200 μl).The plates are monitored over the length of the assay (60 minutes) for change in absorbance at the appropriate wavelength (340 nm for 3-Np and HMC, 370 nm for PAP, and 400 nm for 4-Np) using a Spectromax Plus microtiter plate reader equipped with a monochrometer (acceptable results can be obtained with plate readers that utilize cutoff filters). Proteolytic cleavage of the ester linkage between the Nva and the chromophore is monitored at the appropriate wavelength against a no enzyme blank as a control for non-enzymatic hydrolysis. The evaluation of substrate kinetic parameters is performed over a 30-fold substrate concentration range (˜6-200 μM). Initial velocities are determined using linear regression and kinetic constants are obtained by fitting the data to the Michaelis-Menten equation using non-linear regression analysis (Mac Curve Fit 1.1, K. Raner). Turnover numbers (kcat) are calculated assuming the enzyme is fully active.
A word on the Ki: it is the equilibrium dissociation constant of an inhibitor or competing ligand from its target. Regarding `C=CCNC(=O)C(=O)C(CCC)NC(=O)[C@@H]1[C@@H]2[C@H](CN1C(=O)[C@@H](NC(=O)N[C@H](CN(C)c1c(C(C)(C)C)c(=O)c1=O)C(C)(C)C)C1(C)CCCCC1)C2(C)C` (stereo partly shown) [drawing 252], the inhibition constant (Ki) worked out at 5.4 nM.

As for `C=CCNC(=O)C(=O)C(CCC(F)(F)F)NC(=O)[C@@H]1[C@@H]2[C@H](CN1C(=O)[C@@H](NC(=O)N[C@H](CN(C)c1c(C(C)(C)C)c(=O)c1=O)C(C)(C)C)C1(C)CCCCC1)C2(C)C` (stereo partly shown) [drawing 253], the inhibitory constant (Ki) is 6 nM.

For `CCCC(NC(=O)[C@@H]1[C@@H]2[C@H](CN1C(=O)[C@@H](NC(=O)N[C@H](CN(C)c1c(C(C)(C)C)c(=O)c1=O)C(C)(C)C)C1(C)CCCCC1)C2(C)C)C(=O)C(=O)NC1CC1` (stereo partly shown) [drawing 254], the inhibitory constant (Ki) stood at 8 nM.

Consider `C=CCNC(=O)C(=O)C(CCC)NC(=O)[C@@H]1[C@@H]2[C@H](CN1C(=O)[C@@H](NC(=O)N[C@H](CN(C)c1c(C3(C)CC3)c(=O)c1=O)C(C)(C)C)C1CCCCC1)C2(C)C` (stereo partly shown) [drawing 255], for which the inhibitory constant (Ki) was 12 nM.

The record behind these values is US7635694B2, “Cyclobutenedione-containing compounds as inhibitors of hepatitis C virus NS3 serine protease” (Schering Corporation, priority 2004, dated 2009).
